# Test results published in the RNAGym collection of RNA variant scans (doi:10.7554/elife.90254).
# Read counts are not given, so values of variants with three or more changes are uncertain.
# B1: LINE1-mini (parent)
# chain: GGCAGAGCUCAACACAGCGUGGCAAAGUGGCUGUGGCUAGACUGCC
# Variants of: B1
# Assay: self-cleavage, relative activity (ratio to wild type); higher = more cleavage; in vitro, sequencing; the parent is a self-cleaving ribozyme
row,Variant,self-cleavage
1,GGCAGAGCUCAAGACAGCCUGGCAAAGUCGCUGUGGCUAGACUGCC [C13G G19C G29C],0.05
2,GGCAGAGCUCAAGACAUCGUGGCAAAGUGGCUGUGGCUCGACUGCC [C13G G17U A39C],0.08
3,GGCAGAGCUCAAGACAGCGUUGCAAAGUAGCUGUGGCUAGACUGCC [C13G G21U G29A],0.35
4,GGCAGAGCUCAAGACAGCGUGGCCAAGUGGGUGUGGCUAGACUGCC [C13G A24C C31G],0.02
5,GGCAGAGCUCAAGACAGUGUGGAAAAGUGGCUGUGGCUAGACUGCC [C13G C18U C23A],0.28
6,GGCAGAGCUCAAGACGGCGAGGCAAAGUGGCUGUGGCUGGACUGCC [C13G A16G U20A A39G],0
7,GGCAGAGCUCAAGACAGUGUGGCACAGUGUCUGUGGCUAGACUGCC [C13G C18U A25C G30U],0.02
8,GGCAGAGCUCAAGACAGAGUGGAAAAGUGGCUGUGGCUAGACUGCG [C13G C18A C23A C46G],0.03
9,GGCAGAGCUCAAGACAACGUGGCAAAGUGGCUGUAGCUACACUGCC [C13G G17A G35A G40C],0.21
10,GGCAGAGCUCAAGACAGCCUAGCAAAGUGUCUGUGGCUAGACUGCC [C13G G19C G21A G30U],0.03
11,GGCAGAGCUCAAGACAGCGUGGCAAAGUGGUUGUGGUUCGACUGCC [C13G C31U C37U A39C],0.03
12,GGCAGAGCUCAAGACAGCGUGGCAAAGUGGUUAUGGCUAGACUGCC [C13G C31U G33A],0.09
13,GGCAGAGCUCAAGACAGCGUGGCAAAGUAGCAGUGGCUAGACUGCC [C13G G29A U32A],0.05
14,GGCAGAGCUCAAGACAGCGUGGCAAAGUGGGUGUGGCUGGACUGCC [C13G C31G A39G],0.04
15,GGCAGAGCUCAAGACUGCGUGGCAAAGUGGCUGUGGCUAGCCUGCC [C13G A16U A41C],0.02
16,GGCAGAGCUCAAGACACCGUGGCAAACUGGCUGGGGCUAGACUGCC [C13G G17C G27C U34G],0
17,GGCAGAGCUCAAGACAGCGUGGCAAAGUGGCUGUAGCUAGACUGAC [C13G G35A C45A],0.02
18,GGCAGAGCUCAAGACAGCGUCGCAAAGUGGCUUUAGCUAGACUGCC [C13G G21C G33U G35A],0.01
19,GGCAGAGCUCAAGACAGCGUGGCAACGAGGCUUUGGCUAGACUGCC [C13G A26C U28A G33U],0.08

row,Variant,self-cleavage
1,GGCAGAGCUCAAGACAGCGUGGCAAACCGGCUGUGGCUAGACUGCC [C13G G27C U28C],0.12
2,GGCAGAGCUCAAGACAGCCUGGCAAAGUGACUGUGGCUAGACUGCC [C13G G19C G30A],0.02
3,GGCAGAGCUCAAGACAGCGUGACAUAGUGGCUGUGGCUAGACUGUC [C13G G22A A25U C45U],0.31
4,GGCAGAGCUCAAGACAGCGUGGCAAAGUGGCUAUGGCUACACUCCC [C13G G33A G40C G44C],0.06
5,GGCAGAGCUCAAGACAGCGUGGCAAGGUGGCUGUGACUAAACUGCC [C13G A26G G36A G40A],0.12
6,GGCAGAGCUCAAGACAGCGUGGCAAAGUCGUUGUGGCGAGCCUGCC [C13G G29C C31U U38G A41C],0.02
7,GGCAGAGCUCAAGACAGCGUUGCAAAGUUGCUGUGGCUAGUCUGCC [C13G G21U G29U A41U],0.12
8,GGCAGAGCUCAAGACAGCGUCGCAAAGUGGCUGUGGUUCGACUGCC [C13G G21C C37U A39C],0.07
9,GGCAGAGCUCAAGACAGCGUGGCAAAGUGGCUGUGGAGAGACUGCC [C13G C37A U38G],0.01
10,GGCAGAGCUCAAGAAACCAUGGCAAAGUGGCUGUGGCUAGACUGCC [C13G C15A G17C G19A],0.07
11,GGCAGAGCUCAAGACAGCGUUGAAAAGUGGCUGUGGCUAGACUGCC [C13G G21U C23A],0.14
12,GGCAGAGCUCAAGACAGCGUGGCAAAGUUGCUGUGGCUAGACUGUC [C13G G29U C45U],0.3
13,GGCAGAGCUCAAGACAGAGGGGCAAAGUUGCUGUGGCUAGACUGUC [C13G C18A U20G G29U C45U],0.01
14,GGCAGAGCUCAAGACAGCGUGGCCAAGUGGCUGUGGCUAGUCUCCC [C13G A24C A41U G44C],0.2
15,GGCAGAGCUCAAGACAGCAUGGCAAAGUGGAUGUGACUAGACAGCC [C13G G19A C31A G36A U43A],0.03
16,GGCAGAGCUCAAGACAGAGUGGCAAAGUGGCUUUGGCUAGACUGCC [C13G C18A G33U],0.09
17,GGCAGAGCUCAAGACAGCGUAGCAAAGUGGCUCUGGCUAGACUGCC [C13G G21A G33C],0.04
18,GGCAGAGCUCAAGACAGCGUCGCAAAGUGGCUGUGGGUAGACUGCC [C13G G21C C37G],0.01
19,GGCAGAGCUCAAGACAGCGUGGCAAAGUGUGUGUGGCUAGACUGCC [C13G G30U C31G],0.06

row,Variant,self-cleavage
1,GGCAGAGCUCAAGACAGGGUGGCAAAGUGGGUUUGGCUAGACUGCC [C13G C18G C31G G33U],0.01
2,GGCAGAGCUCAAGAGAGCGUGGCAGACGGGCUGUGGCUAGACUGCC [C13G C15G A25G G27C U28G],0.01
3,GGCAGAGCUCAAGACAGCGUCGCAAAGUGGUUGUGGCAAGACUGCC [C13G G21C C31U U38A],0.02
4,GGCAGAGCUCAAGACAGUGUGGCAAAGUGGUUGUGGCUAGACUGCC [C13G C18U C31U],0.08
5,GGCAGAGCUCAAGACAGCGUGGAAAAGUGGCUGCGGCUAGACUGCC [C13G C23A U34C],0.03
6,GGCAGAGCUCAAGACAUCGUGGCAAAGUGGCUGUGGCUAGCCUGCC [C13G G17U A41C],0.17
7,GGCAGAGCUCAAGACAACGUGGCAAAGUGGCUGUGGUUAGACUGCC [C13G G17A C37U],0.11
8,GGCAGAGCUCAAGACAGCAUGGCAAAGUGGCUGUAGCUAGACGCCC [C13G G19A G35A U43G G44C],0.04
9,GGCAGAGCUCAAGACGGCGUGGCAAAGUUGCUGUGGCUAGACUGCC [C13G A16G G29U],0.02
10,GGCAGAGCUCAAGACAGCUUGACAAAGUAGCUGUGGCUACAAUGCC [C13G G19U G22A G29A G40C C42A],0.07
11,GGCAGAGCUCAAGACAGCGUGGCUAAGUGGCUAUGGCUAGACUGCC [C13G A24U G33A],0.04
12,GGCAGAGCUCAAGACAGCGUGGCUAAGUGGCUUUGGCUAGACUGCC [C13G A24U G33U],0.01
13,GGCAGAGCUCAAGACAGCGUGGCAAAUGGGCUGUGGCUAGACUGCC [C13G G27U U28G],0.09
14,GGCAGAGCUCAAGACAGCGUGGCAUAGUGGCGGUGGCUAGACUGCC [C13G A25U U32G],0.02
15,GGCAGAGCUCAAGACAGCGUGAUAAAGUGGCUGUGGCUAGACUGCC [C13G G22A C23U],0.1
16,GGCAGAGCUCAAGACAGCGUGGCAAAGUGUUUGUUGCUAGACCGCC [C13G G30U C31U G35U U43C],0.02
17,GGCAGAGCUCAAGACAGCGUGGCCAAGUGGCUGUGGCUAGCCUGCC [C13G A24C A41C],0.08
18,GGCAGAGCUCAAGAUAGCGUGGUAAAGUGGCUGUGGCUAGACUGCC [C13G C15U C23U],0.03
